Among the data in the RNAGym collection of RNA variant scans (doi:10.7554/elife.90254) are self-cleavage values, retold here.

B1: LINE1-full (parent)
chain: UACGUAGGUGGUUUUCCCCUGAUAGUGCUAAGGGGGCCUGGAAGUUUGGACUGGGCAGAGCUCAACACAGCGUGGCAAAGUGGCUGUGGCUAGACUGCCUCUCUGGAUUCCUCGUCACUCAGCAGGGCAUCUCUGAGAGAAAUGCC

The source gives no read counts; variants with many changes may rest on few reads.

This data set covers variants of B1. As to the kind of experiment: self-cleavage, relative activity (ratio to wild type); higher = more cleavage; in vitro, sequencing; the parent is a self-cleaving ribozyme.
In the case of U9C U47A A77G U104C, the self-cleavage was 1.6.
For U9C U20A U73A A140G, the self-cleavage was determined as 2.35.
For U12C A57U U87C A107G the value was 0; for U12C G32A A142G, 1.53; for U9C U26C U132C, 1.12.
As to G10A U108C A136U, the self-cleavage is 0.99.
Turning to U12C A43G U62A A69G, the self-cleavage came to 0.12.
On to U12C A78U A136G, for which the self-cleavage amounted to 1.97.
As for U12C C18U U115C U130C, the figure is 0.92.
As for U12C A64G A124G, the figure is 0; as for U12C A30G G53A A94U U100C, 0.44.
As for U12A C38U U112C, the figure is 1.27; as for G10A U52A G72A, 0.62; as for U12C G48A A117G, 0.8.
In the case of U12C A78G U130C, the self-cleavage turned out to be 1.66.
For G11C A64U C76U U87A, the self-cleavage came to 0.1.
Turning to G11A U29C A50G, the self-cleavage was found to be 1.35.
Take U12A U23C A57U: the self-cleavage was 0.
On to G11A G34A A67G U109C, for which the self-cleavage was determined as 0.15.
Take U9C U46C U62C G75U A117G U130C: the self-cleavage is 0.
As to U9G U15C U100C, the self-cleavage turned out to be 1.06.
For U12A U23A U81C the value was 1.69; for U12C G32A C63A, 0.09.
Regarding U12C A31C A42G G82A U104A A141G, the self-cleavage was found to be 1.84.
For U12C G32U C118A the value was 1.2.
For U12C A31U A59G the value was 0.17; for G11C C18U A50G U109C, 0.48; for U9C U46C A141G, 2.44.
U12C G34A A65G U109C: the self-cleavage was 0.
For the variant U12C A22U A30U A42G A43C A79G A138U, the self-cleavage was 0.
Turning to G11U U12C A22U A31C A59G, the self-cleavage stood at 0.16.
As for U12A G35U C76U A92G U119C, the figure is 0.05.
On to U9C U45A A140G, for which the self-cleavage came out at 1.02.
For the variant U12C G53A A65U U91C A140U A142G, the self-cleavage turned out to be 0.06.
As for U12A C19U U91A, the self-cleavage was determined as 1.33.
For U12C A31C C113A C128A U143C the value was 0.87; for G11A C28G A64G U85A U143C, 0.03; for G10A A57G A129G A140G, 1.1.
As for U12C C66A U130C, the self-cleavage is 0.03.
As for U9G A69G G82A, the figure is 0.54; as for G11A U62A A64G A129G U132C, 0.18.
With U9C U102C U134A, the self-cleavage came out at 1.16.
U12C A94U G114A: the self-cleavage was found to be 0.3.
As for U9G U39C U96A A141G, the self-cleavage was found to be 0.06.
As for U12C G72A U87C U119A C145U, the self-cleavage turned out to be 0.07.
For U9C U85C A92U, the self-cleavage amounted to 0.43.
As for U9C U26A C71U A94G A117G, the self-cleavage amounted to 0.51.
As for U12C C51U A121U, the figure is 1.16; as for U12C A69U U87A U115C, 0.05.
For U12C A67G A79U A136U the value was 1.25.
For U12C A57G G72A the value was 1.55; for U12A C17U G105U, 0.61.
In the case of G10A A31C U47C, the self-cleavage stood at 1.94.
Regarding U12A U46C A136G, the self-cleavage is 1.57.
As for U12C A117G U119A, the figure is 1.22; as for U9G G35A U100C, 0.99.
Take U9G A65G U100C: the self-cleavage is 0.15.
Take U9C U87C A136G: the self-cleavage was determined as 0.
With U12C G49A A57G U96C, the self-cleavage is 2.68.
In the case of G10A A22G A64U C71U U115C C133A, the self-cleavage was determined as 0.18.
As for U12C G34U A140G, the figure is 1.73; as for U12C A69U G80U U104C A129U, 0.23; as for U12C G32A G83A U115C C123U, 0.8.
On to U12C A24G A57G C116U, for which the self-cleavage turned out to be 0.98.
For the variant U9C U47A A57G U102C U132A, the self-cleavage turned out to be 0.97.
For U9C U87A U115G the value was 0.17; for U12C C76U U112C, 1.74; for U12C G86A A136G A138U, 0.11.
Regarding G10U U47C A107G, the self-cleavage turned out to be 1.77.
Consider U9C U62C A78U C131A, for which the self-cleavage is 0.06.
Turning to U12C A78G U119C, the self-cleavage worked out at 2.3.
Turning to U12C A43G U52C U109C, the self-cleavage turned out to be 1.02.
U9G A31G U73C: the self-cleavage is 0.46.
In the case of U12A U104C U134A, the self-cleavage is 0.91.
Regarding U9C U39C C61A U81A U115C, the self-cleavage came to 0.13.
U12C G36A U132C: the self-cleavage was found to be 1.75.
Consider U12C G21A A43G U100G, for which the self-cleavage was determined as 0.43.
On to G10A C17U A22G, for which the self-cleavage was determined as 0.93.
On to U12A U87C U96A, for which the self-cleavage was determined as 0.08.
With U9C U13G A31U A78U, the self-cleavage stood at 1.04.
Turning to G11U G40A U45G, the self-cleavage is 0.15.
As for G10A A50G G126A, the self-cleavage was 0.88.
For U9G U14C U15C C98U, the self-cleavage stood at 1.18.
U12C A30G A124U A140G: the self-cleavage worked out at 1.45.
U9C U23C A43G: the self-cleavage was determined as 0.
For the variant U12C A65G C123U, the self-cleavage came out at 0.04.
Turning to G10A C28A A78G A79U U130C, the self-cleavage is 0.64.
Take U9C U20C A67U A94C G126A A140G: the self-cleavage stood at 0.12.
For U12C A43G U112C A117C, the self-cleavage was found to be 0.
Take U12C A121C A129U A138G: the self-cleavage came out at 0.88.
For U9C U52A U102C U132C, the self-cleavage is 1.75.
Turning to U12A U15C A30U, the self-cleavage was determined as 1.18.
For U12C G58A A69U G106A the value was 0.05; for U9C U46C U96G, 0.
Consider U12A A67G U109A, for which the self-cleavage worked out at 0.71.
Turning to U9G U73C A142G, the self-cleavage turned out to be 1.46.
Take U12C A138G A142G: the self-cleavage was determined as 1.12.
Consider U12C A65G A117U U143C, for which the self-cleavage turned out to be 0.55.
For U12A U104A G105A A138G, the self-cleavage was determined as 1.55.
For U12C C51U A65G A141G, the self-cleavage is 0.
As for U9C U13C G137U, the figure is 0.53; as for U12A U46C A57U U109C, 0.09.
Turning to G11A C19U U134C, the self-cleavage was found to be 1.25.
With G10A U39A G93A A129G A141G, the self-cleavage came out at 0.03.
On to U12C A65G U104A U130C, for which the self-cleavage was determined as 0.46.
For G11A U14C A57U, the self-cleavage is 0.11.
With U12C C123U A141G, the self-cleavage was 1.29.
Regarding U12C A77U G89U U134G, the self-cleavage is 0.04.
On to U12C G49A A65U U87A U96C C99U C101U U119C U130C, for which the self-cleavage worked out at 0.01.
As for U9C U15C A77G U96C, the figure is 1.41; as for G10A U62C U130C, 0.07.
For the variant U12A U20C U62C A92G A136U, the self-cleavage was determined as 0.11.
Regarding U12C A57G U62C A124G, the self-cleavage worked out at 0.11.
On to U12C C38A G58U, for which the self-cleavage came out at 0.08.
On to U12C A30U A77G A117U A129U A138G, for which the self-cleavage came out at 2.3.
As for U12A U13C U45G U62A A136G A138G, the self-cleavage worked out at 0.
Regarding U9C U15C A141G, the self-cleavage stood at 1.87.
For U9C U39C A57G A138G the value was 0.63; for U12A A117G A141G, 1.89.
In the case of U12A U15C A65G, the self-cleavage is 0.14.
Consider U12C G35C A50G A65U, for which the self-cleavage came to 0.21.
Take U12A A43G A77U: the self-cleavage came to 0.56.
As for U9C U81C A117G, the self-cleavage amounted to 1.71.
Turning to U12C G32A U104G, the self-cleavage was found to be 0.93.
For G11A A64U A107G A124U, the self-cleavage worked out at 0.55.
As to U12C A69U U85C G125A A140G, the self-cleavage worked out at 0.35.
As for G11A G33U A57U U62C G80A, the figure is 0.02; as for U12C A77G A124G, 0.54; as for U12C A77G A124U, 2.18.
For U9C U100C A129C the value was 2.3.
Turning to U12A U73A A78G, the self-cleavage is 0.44.
G10A C51A U96C: the self-cleavage was determined as 0.13.
With U12A U39A G44U, the self-cleavage amounted to 0.92.
As for U9G U14C A42U U85C A117G, the figure is 0.21.
For G11U U15A U52C A94G, the self-cleavage came to 0.74.
Take G10U A69G C120A: the self-cleavage stood at 0.6.
For U9C U46A G114A U143C, the self-cleavage was found to be 1.3.
For U12C A42G A136G the value was 1.33; for G11C U47A A141G, 1.79.
On to U12C A64U C68U U96A U109C G126A A141G, for which the self-cleavage is 0.
For U12C A31U A43G, the self-cleavage amounted to 1.01.
In the case of U12C C18U A129U, the self-cleavage was found to be 0.91.
For the variant U12C C37G A59U U109A, the self-cleavage turned out to be 1.
Take U9G A64G A94U: the self-cleavage was 0.12.
For U12A A22G A78G the value was 1.66; for U12C A94G C118U A138G, 0.27; for U12C C71U A78U A94G U134C A142G, 0.22.
For the variant U12C A78G U134C, the self-cleavage was determined as 1.79.
For U9C U47C G80A C90U U109C U112C A141U the value was 0.05.
As to U12C C18A U20C U109C, the self-cleavage came to 0.63.
As for U12C G32U A141G, the figure is 1.21; as for G11A U14A U134C A138G, 0.84.
Consider U12C A43G U100A A140G, for which the self-cleavage was 1.74.
With U9C U85A U100C U112C, the self-cleavage amounted to 0.92.
As for U12C A69G A121U, the figure is 0.71; as for U12C A79G U112A A140G, 1.14.
G11U U91A U100C A140G: the self-cleavage is 0.48.
With U12C G54U G137A, the self-cleavage is 1.08.
On to U12C A43G A129C U130C, for which the self-cleavage turned out to be 1.28.
Turning to U12C A57U U100C A107U U108C, the self-cleavage turned out to be 0.63.
For U12C G35C A65G the value was 0.29; for U12C A69U U81C, 0.29.
Consider U12C A22G U47C, for which the self-cleavage stood at 0.
As for U9G A77G U112C A142G, the figure is 0.98; as for U12C A79G U112C A141G, 0.
For U9C U39A U73C A117G the value was 0.
As to U12C A24G G36A A65G A69G U119C A124U A140G, the self-cleavage was 0.
